According to the supplement of paper PMC11417369:
± gives the standard deviation of the averaged measurements. The list shows a part of the results.

test system: PfAP2-I AP2 domain 3 (GST-tagged); test: gcPBM binding intensity (ln(normalized median fluorescence intensity)); higher = stronger DNA binding
Summary of the method: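 Binding intensity is defined as the maximum Masliner-normalised natural-log median intensity across replicate spots for either probe orientation. It was measured on an Agilent 4 × 180k array of primer-extended double-stranded 36-bp intergenic genomic probes and negative controls, to which GST-tagged P. falciparum DNA-binding domains made in E. coli were applied for 1 h in 1× PBS with 1% milk, 0.2 mg/ml BSA, 0.5% salmon testes DNA and 0.03% Triton X-100. Detection was by Alexa488 anti-GST antibody and scanning at 488 nm.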

Row | Sequence | gcPBM binding intensity (ln)
1 | TTCTTATATTGTACAGTACACACCTTTATAATGTTA [CACACA_site7953] | 8.54 ± 0.49
2 | ATATAAATAACGTGTACACACATATGTATTTATATA [CACACA_site6520] | 8.43 ± 0.56
3 | AATATTTCTATATGAACATGCAATGTATCTTTTTAT [TGCATGCA_site738] | 7.46 ± 0.56
4 | TTTTTATGATTATACTTATATAATTTCATGATTGAA [CACACA_negctrl_site228] | 7.41 ± 0.54
5 | AATACTTACCAAAATACACACACACCCAAAATATAT [CACACA_site8559] | 8.24 ± 0.44
6 | ATTCCACTGTTTTAGTGTACTGGTCGTTTTTTTTTT [XGTACX_site1738] | 7.95 ± 0.42
7 | AATTTTTTATACACAAGTACAAACGCGTAGTCACTT [XGTACX_site2458] | 7.92 ± 0.57
8 | ATTAAGTCTTATATTACACACGACATTGTAATGTAA [CACACA_site528] | 7.56 ± 0.55
9 | TCCAAAATATCCTTCACACACGAACAGTTTCATTTA [CACACA_site5511] | 7.79 ± 0.62
10 | AAAAATAAAACAATTACACACATAATTTTATTTTTA [CACACA_site928] | 7.56 ± 0.55
11 | TTTATATTAATTTGTGTAAATGCATATGATGAGCAT [XGTACX_negctrl_site254] | 7.88 ± 0.42
12 | ATATATATATATATATGTACATATAATTTTTTTTTT [XGTACX_site6948] | 9.325 ± 0.021
13 | TAAATTTTTTTTTTGATGCACTTAGTTATTATATTT | 9.535 ± 0.021
14 | ATAACAATTATTTATCTACACACTTTTATGTTATTT [CACACA_site7886] | 8.12 ± 0.81
15 | AATGGCAAAATAGGCACACACACATATACAGATATA [CACACA_site4726] | 8.04 ± 0.49
16 | ATAATAAAATAAATCACACATAATATAATGTAATAT [CACACA_site6144] | 7.54 ± 0.54
17 | ACAAAAAAATAAAATATATATATATATATAATATAT [CACACA_negctrl_site805] | 8.12 ± 0.3
18 | GAATTTTTGACGATATAGGAAATAATTATCCTGAAG [XGTACX_negctrl_site61] | 7.46 ± 0.82
19 | CTGTTAATTATATATTGTACAAAAGATATGATTATA [XGTACX_site6927] | 7.71 ± 0.39
20 | ATTTATATATTTATATGTACATATCTATACATATAT [XGTACX_site7580] | 7.93 ± 0.59
21 | TTTTTAAAAAAAAAAAAATAAAAAAAAAAAAAATAT [XGTACX_negctrl_site7] | 7.64 ± 0.58
22 | AAATAAAGAATATAAATACACACTTAAATATATATT [CACACA_site4007] | 7.58 ± 0.61

Row | Sequence | gcPBM binding intensity (ln)
23 | TGGACCAAACGACAAAAAAAAAGCAGAAAACAAAAA [GTGCAC_negctrl_site693] | 7.62 ± 0.73
24 | TATATTATATATTGGGGTACATATATATAAATATAA [XGTACX_site2296] | 7.97 ± 0.26
25 | TATCAATATTAAAAAGTGCAAAATAAAATATAAAAT [GTGCAC_site9486] | 10.7 ± 0.23
26 | AAAATAAATAGATAAGCACACAAGCATATAGACATA [CACACA_site7958] | 7.84 ± 0.47
27 | TAATTTCTTATGTATTGTACATATAATATATGATAT [XGTACX_site4898] | 7.64 ± 0.38
28 | AATATATTTATGCTCATGCACTTTTTTTTTTTTTTT [GTGCAC_site9654] | 9.01 ± 0.39
29 | TATGTTATATTATAAGGATAAATTTTGATTATATAA [TGCATGCA_negctrl_site600] | 7.36 ± 0.52
30 | AGAATAAAAAGGAACACACACACACCCATATATATA [CACACA_site3590] | 8.29 ± 0.66
31 | ATGTACATTTTTTTCACACATACATTAATTTATGAG [CACACA_site5801] | 7.96 ± 0.49
32 | TATATTTACATTGTAACACACATGAAATATTTATAT [CACACA_site6178] | 7.73 ± 0.35
33 | TAGACTAATCCCAAAAGTACAGAAAAATTATATTAT [XGTACX_site8663] | 7.84 ± 0.48
34 | TTATTTCAAATTAATTTACACACTTCATACTAAAAG [CACACA_site9039] | 8.11 ± 0.57
35 | CATTATTTACCGCCGTGTACGTAATGAGAAATTAAA [XGTACX_site4662] | 7.84 ± 0.4
36 | TAATAAAAAAAGTGCACACACATAATATTTATATAT [CACACA_site7548] | 9.7 ± 0.18
37 | TTTATTTATTATTAAAGTACTAAATTACATTATTAT [XGTACX_site6624] | 7.5 ± 0.15
38 | TATTTAATTACATGAACACACATTAGATATTTTTAA [CACACA_site7405] | 7.49 ± 0.51
39 | TGTTTTTTGTTCTTTACAAAAAAAAAAAAAAAAAAA [GTGCAC_negctrl_site61] | 8.12 ± 1.1
40 | ACATACAAGAATTAAACACACACAAAATATAAATTC [CACACA_site8985] | 7.8 ± 0.71
41 | TCTTGTATATACAGTAGTACTAAAAATTATTAAATA [XGTACX_site7896] | 7.79 ± 0.37
42 | GAAAACAAATATGTAGCACACATTCACATAATATAT [CACACA_site8731] | 8.21 ± 0.32
43 | TTATGTTGTAAATGCACACATACAAATACAGATACA [CACACA_site4876] | 9.79 ± 0.52
44 | ATTATAATGGTAAAGTGTACAAATTTTTATTACACC [XGTACX_site5274] | 8.49 ± 0.092
